From paper PMC4336329 (PLoS ONE, 2015)
About 2,200 (0.71%) of roughly 310,000 compounds showed an effect of 50% or more. Effects have a minus sign here. The list shows a part of the results.

biological target: human ether-à-go-go-related gene (hERG) potassium channel (human, UniProt Q12809); experiment: primary screen, population patch clamp on CHO cells stably expressing hERG
Sequence (Q12809 whole entry, looked up): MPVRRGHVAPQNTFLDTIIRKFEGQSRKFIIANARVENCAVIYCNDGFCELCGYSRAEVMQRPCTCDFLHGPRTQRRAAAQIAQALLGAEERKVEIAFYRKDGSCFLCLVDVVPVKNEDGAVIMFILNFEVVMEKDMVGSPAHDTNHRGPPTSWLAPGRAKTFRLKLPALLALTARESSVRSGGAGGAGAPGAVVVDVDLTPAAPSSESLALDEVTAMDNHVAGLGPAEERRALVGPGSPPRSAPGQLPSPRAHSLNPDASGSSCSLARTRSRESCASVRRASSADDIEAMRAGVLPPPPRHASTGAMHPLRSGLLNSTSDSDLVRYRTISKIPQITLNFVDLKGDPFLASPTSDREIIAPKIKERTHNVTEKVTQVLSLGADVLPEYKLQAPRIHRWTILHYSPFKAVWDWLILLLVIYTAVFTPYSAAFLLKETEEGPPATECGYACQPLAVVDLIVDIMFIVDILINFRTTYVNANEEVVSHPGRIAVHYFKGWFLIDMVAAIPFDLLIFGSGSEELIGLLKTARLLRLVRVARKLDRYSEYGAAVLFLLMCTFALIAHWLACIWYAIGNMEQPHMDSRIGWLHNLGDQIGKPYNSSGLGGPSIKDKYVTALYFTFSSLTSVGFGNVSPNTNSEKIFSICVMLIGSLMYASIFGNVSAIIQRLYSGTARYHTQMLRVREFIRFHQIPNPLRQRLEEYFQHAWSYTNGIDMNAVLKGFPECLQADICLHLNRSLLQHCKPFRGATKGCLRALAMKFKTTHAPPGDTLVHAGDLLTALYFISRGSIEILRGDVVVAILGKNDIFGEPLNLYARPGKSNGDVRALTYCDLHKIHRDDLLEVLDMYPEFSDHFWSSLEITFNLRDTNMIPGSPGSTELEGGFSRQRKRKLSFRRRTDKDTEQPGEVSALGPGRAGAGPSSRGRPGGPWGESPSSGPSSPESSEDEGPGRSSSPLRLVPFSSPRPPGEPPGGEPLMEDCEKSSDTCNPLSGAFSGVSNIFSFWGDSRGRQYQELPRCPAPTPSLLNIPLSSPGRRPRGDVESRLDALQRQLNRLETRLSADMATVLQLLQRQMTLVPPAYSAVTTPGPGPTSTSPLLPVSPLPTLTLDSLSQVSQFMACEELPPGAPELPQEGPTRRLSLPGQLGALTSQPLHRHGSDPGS

Structure (SMILES) | hERG current change (%, negative = inhibition) at 1uM
O=C(NCc1ccc(Cl)cc1)C(=O)Nc1nccs1 | 15.4%
COc1ccc(C(=O)C2CCCN(C3CSCCSC3)C2)c(OC)c1 (stereo not drawn) | -4.62%
CN1CCN(C(=O)c2cnn(-c3ccccc3)c2NC(=O)c2ccc(Br)cc2)CC1 | -88.5%
COc1ccc(C(=O)Nc2cc(C)c3c(=O)oc4ccccc4c3n2)cc1 | 16.8%
C/C(=N/NC(=O)c1sc(NS(=O)(=O)c2ccc(C)cc2)nc1C)c1sc(N)nc1C | 7.33%
Cc1ccc(CN2C(=O)CSC2c2cccnc2)cc1 (stereo not drawn) | -1.18%
COc1ccc(/C=C(\C#N)C(=O)OC2CCOC2=O)cc1 (stereo not drawn) | 8.35%
COc1ccc(OCC(=O)Nc2cc(C)c(Cl)cc2OC)c([N+](=O)[O-])c1 | 6.88%
CC(C)NC(=O)c1ccc2c(c1)N(CC(=O)Nc1ccccc1F)C(=O)C(C)(C)O2 | 9.75%
O=C(NCC(=O)N(CCc1ccccc1)C(C(=O)NC1CCCC1)c1cccnc1)c1ccco1 (stereo not drawn) | -20.7%
C/C(=N\NC(=O)c1cccc(Cl)c1)C1C(=O)c2ccccc2C1=O | -5.36%
CSc1ccc(-c2ccco2)nn1 | 13.5%
O=C(NCCC(=O)N1CCc2ccccc21)c1ccco1 | 14.7%
Cc1nc(C)c(-c2csc(Nc3ccc(O)c(C(=O)O)c3)n2)s1 | 13.6%
Cc1nc2c(C)cccn2c1C(=O)N/N=C/c1ccccc1[N+](=O)[O-] | 13.3%
Cn1ccc(=NC=C(C#N)C#N)c2ccccc21 | 9.71%
O=C(OCC(=O)N1CCCC1=O)c1cc(S(=O)(=O)N2CCOCC2)ccc1F | 2.53%
CCOC(=O)C1CCN(S(=O)(=O)c2c(C(=O)N3CCCCC3)c(C)n(C)c2C)CC1 | -3.28%
CS(=O)(=O)c1cccc(-c2nnc(NC(=O)c3ccc4ncsc4c3)o2)c1 | 7.94%
CN1C2C=C3C(C#N)=C(N)C(C#N)(C#N)C(c4ccc(Br)cc4)C3C1CC2 (stereo not drawn) | 5.96%
Cc1cc(Cl)ccc1OCCCC(=O)NCC1CCCO1 (stereo not drawn) | 9.98%
Cc1c(Br)ccc(NC(=O)COc2ccccc2C(N)=O)c1C | 14.8%
CC(C)N=C(NC#N)SCc1ccc(Br)cc1 | 15.7%

Structure (SMILES) | hERG current change (%, negative = inhibition) at 1uM
CCOC(=O)C1(CCOc2ccccc2)CCN(Cc2cnc(SC)nc2)CC1 | -28.4%
COC(=O)c1ccc(OC)c(OC2CCCC2)c1 | 11.6%
COc1cccc(CNC(=O)C2CCC(=O)N(CCc3cccc(F)c3)C2)c1 (stereo not drawn) | 6.28%
N#C/C(=C\c1cc2c(cc1Br)OCO2)C(=O)NCC1CCCO1 (stereo not drawn) | 1.78%
O=C1NC2(CCCCC2)Oc2ccccc21 | 6.35%
COC(=O)CCCCC(=O)OC | 14.3%
CCOc1ccc(CNC(=O)CCCn2ccc3cc(S(=O)(=O)N4CCCC4)ccc32)cc1 | -3.81%
CCc1nc2ccc(C(=O)N3CCN(c4ccc(Cl)cc4)CC3)cc2nc1CC | 6.96%
CCCC1CCC(c2ccc(/C(N)=N/O)cc2)CC1 (stereo not drawn) | 12.1%
N#Cc1cccc(NC(=O)C2SC(=Nc3ccccc3)C(C(=O)N3CCOCC3)=C2N)c1 (stereo not drawn) | 2.72%
O=C(CO)N/N=C/c1ccccc1F | 18.3%
COCCNC(=O)c1cc(-c2ccccc2)n(Cc2cc(C)no2)n1 | 9.99%
O=C(Nc1ccc(C2SCCS2)cc1)c1ccccc1 | 2.36%
COc1cc(S(=O)(=O)NC2CCCC2)ccc1Cl | 6.55%
COc1ccc2oc(C(=O)OCC(=O)N(C)CC(=O)Nc3ccc(C)cc3)c(C)c2c1 | -12.1%
COc1ccc(OC)c(S(=O)(=O)NCc2cn3ccsc3n2)c1 | 5.22%
Clc1ccc(-c2nnc(-c3ccccc3)c(-c3c[nH]c4ccccc34)n2)cc1 | 14.7%
Cc1ccccc1S(=O)(=O)Cc1ccc(C(=O)NC2CCCCC2C)o1 (stereo not drawn) | 11%
CNS(=O)(=O)c1ccc(N=Cc2c(O)n(-c3ccccc3)c(=O)[nH]c2=O)cc1 | 12.4%
COc1ccc(C(=O)C2CC2c2ccc3c(c2)OCO3)cc1 (stereo not drawn) | 13.2%
COc1cc(/C=N/NC(=O)c2cc(C)oc2C)ccc1O | 12.4%
CN(c1ccccc1)S(=O)(=O)c1cccc(C(=O)OCC(=O)NCc2ccc3c(c2)OCO3)c1 | 8.56%
CC1(C)Cc2c(C#N)c(N3CCOCC3)nc(Cc3ccccc3)c2CO1 | 6.05%

Structure (SMILES) | hERG current change (%, negative = inhibition) at 1uM
Cc1cc(C)c(OCCN2CC(C)OC(C)C2)c(Br)c1.O=C(O)C(=O)O (stereo not drawn) | 0.28%
O=C(O)c1nn(CCOc2c(Cl)cccc2Cl)c(=O)c2ccccc12 | 13.4%
CCNC(=S)NC1CC2CCCC(C1)N2Cc1ccco1 (stereo not drawn) | -2.58%
COc1ccc(NC(=O)Cn2cnc3c(nnn3-c3ccc(C)cc3)c2=O)cc1 | 14.1%
Cc1ccc(-n2c(O)c(C=Nc3cc(C)on3)c3ccccc3c2=O)c(C)c1 | 6.84%
Cc1ccc2[nH]c(O)c(N=Nc3nc4ccccc4s3)c2c1 | 8.13%
O=C1CNC(=O)N1 | 8.51%
Cc1cccc(C)c1OCC(=O)Nc1ncn[nH]1 | 17.9%
Cl.Oc1ccccc1CNCC12CC3CC(CC(C3)C1)C2 | 12.9%
CCc1ccccc1NC1c2ccccc2C(=O)N1c1cc(C)ccn1 (stereo not drawn) | 9.81%
Cc1nccn1CC(=O)N/N=C/c1ccccc1O | -1.35%
COc1cccc(-c2c(C(=O)N/N=C(\C)COc3ccccc3)nnn2-c2nonc2N)c1 | 6.96%
CCOC(=O)N1CCN(C(=O)CSCC(=O)Nc2nc(-c3ccc(C)cc3)cs2)CC1 | 1.87%
ClC1CCCCC1n1nnc2ccccc21 (stereo not drawn) | 12.9%
CCOC(=O)C1(Cc2cccc(OC)c2)CCN(CC2CC=CCC2)CC1 (stereo not drawn) | -50.6%
O=C(NC1CCCc2c1cnn2-c1cc(F)cc(F)c1)c1cc[n+]([O-])cc1 (stereo not drawn) | -19.6%
CCOc1ncccc1C(=O)NNC(=O)c1ccc(NS(=O)(=O)c2cccs2)cc1 | 16.8%
O=C(Nc1ccc2c(c1)OCO2)c1ccccc1 | 13%
Cc1cc(NC(=O)CCC(=O)N(c2ccccc2)C(C(=O)NCC2CCCO2)c2cccnc2)no1 (stereo not drawn) | -0.442%
Cc1ccccc1CC(=O)N(CCN(C)C)CC1CCCN(Cc2ccccc2F)C1 (stereo not drawn) | 12.8%
Cn1c(=O)n(Cc2ccccc2)c(=O)c2c1nc1n2CCCN1Cc1ccccc1 | -1.88%
COc1ccc(S(=O)(=O)Nc2ccc(-c3ccc4nnc(C)n4n3)cc2)c(OC)c1 | 8.78%
CCOc1ccccc1N1CCN(C(=O)C(F)(F)F)CC1 | 9.94%

Structure (SMILES) | hERG current change (%, negative = inhibition) at 1uM
CCOC(=O)C1=C(C)NC(=O)NC1c1c(C)nn(-c2ccccc2)c1Cl (stereo not drawn) | 9.55%
Nc1sc(-c2ccccc2)cc1-c1n[nH]c(=S)n1C1CCCCC1 | 17.6%
O=C(CSc1nc(Nc2ccccc2)nc(N2CCOCC2)n1)Nc1ccc2c(c1)OCCO2 | -2.24%
CCCC(=O)OCC(=O)Nc1ccc(N=Nc2ccccc2)cc1 | 0.385%
CN(C)c1cc(Cl)c2nonc2c1N | 3.88%
O=[N+]([O-])c1cc(F)c2cccnc2c1O | 13.7%
CC(=O)c1ccc(NC(=O)/C(=C\c2ccc(F)cc2)NC(=O)c2ccco2)cc1 | 1.89%
COC(=O)c1c(NC(=O)CN2C(=O)NC3(CCC(C)CC3)C2=O)sc2c1CCC2 (stereo not drawn) | 3.38%
N#Cc1ccsc1NC(=O)CN1CCN(c2ccccc2)CC1 | 10.5%
COc1ccc(NC(=O)CN(C)C(=O)c2cc3c(s2)CCC(C)C3)cc1 (stereo not drawn) | 4.18%
COc1ccc2cc(CN(Cc3cccs3)Cc3nnnn3Cc3ccccc3)c(=O)[nH]c2c1 | 0.0182%
CCCCn1c(N)c(N(CCOC)C(=O)c2ccc(S(=O)(=O)N(CC)c3ccccc3)cc2)c(=O)[nH]c1=O | 14%
CCn1cc(C2C(C(=O)Nc3cc(C)ccn3)=C(C)NC3=C2C(=O)CC(C)(C)C3)c(C)n1 (stereo not drawn) | 9.57%
O=c1cc(Cn2nnc(-c3ccc(Cl)cc3)n2)nc2sccn12 | -5.47%
c1ccc(Cn2nnc3c(N4CCCCCC4)ncnc32)cc1 | 8.09%
CCOc1ccc(NC(=O)N2CCC(C(N)=O)(N3CCCCC3)CC2)cc1 | -3.92%
CC(=O)Nc1ccc(S(=O)(=O)NCc2ccccn2)cc1 | 16%
CN1CCC(CO)(Cc2ccccc2)CC1 | 4.74%
Cn1c(=O)c2c(nc3n2CCCN3CCc2ccccc2)n(C)c1=O | -1.31%
CCCN(CCC)C(=O)Cn1c2ccccc2c2nc(=O)cc(C)n21 | 15.5%
COc1ccc(C2(O)C(=O)Nc3ccccc32)cc1 (stereo not drawn) | 5.32%
